Here are results for eight molecules from PMC11109194.

Assay [1] deals with T1, HA-TRAF6 (tumor necrosis factor receptor-associated factor 6) (UniProt P70196).
T1 sequence: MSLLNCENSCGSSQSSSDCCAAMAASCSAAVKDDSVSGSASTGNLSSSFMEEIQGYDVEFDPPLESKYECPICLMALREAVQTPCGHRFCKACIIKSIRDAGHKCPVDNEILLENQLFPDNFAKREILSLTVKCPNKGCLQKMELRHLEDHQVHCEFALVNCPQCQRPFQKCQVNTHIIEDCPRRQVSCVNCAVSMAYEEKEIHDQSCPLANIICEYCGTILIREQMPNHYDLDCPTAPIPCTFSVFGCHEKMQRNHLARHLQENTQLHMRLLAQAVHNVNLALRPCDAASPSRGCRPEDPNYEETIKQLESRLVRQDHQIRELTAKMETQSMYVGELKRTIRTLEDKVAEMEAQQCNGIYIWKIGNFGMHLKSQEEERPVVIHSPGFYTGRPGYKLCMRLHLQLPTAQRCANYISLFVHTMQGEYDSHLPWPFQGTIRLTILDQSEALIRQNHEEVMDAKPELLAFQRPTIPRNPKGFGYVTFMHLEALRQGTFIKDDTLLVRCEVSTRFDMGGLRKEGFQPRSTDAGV
Description: co-IP; HEK293 cells co-transfected with tagged plasmids; lysate incubated with the indicated antibody overnight at 4 °C, protein A/G plus agarose beads, western blot; in some panels a third protein co-expressed, or cells incubated with 5Z-7-OX (0.1, 0.3 or 1 mM, 12 h).

Assay [2] concerns the target T2, HA-TAK1 (transforming growth factor β-activated kinase) (UniProt Q62073).
T2 sequence: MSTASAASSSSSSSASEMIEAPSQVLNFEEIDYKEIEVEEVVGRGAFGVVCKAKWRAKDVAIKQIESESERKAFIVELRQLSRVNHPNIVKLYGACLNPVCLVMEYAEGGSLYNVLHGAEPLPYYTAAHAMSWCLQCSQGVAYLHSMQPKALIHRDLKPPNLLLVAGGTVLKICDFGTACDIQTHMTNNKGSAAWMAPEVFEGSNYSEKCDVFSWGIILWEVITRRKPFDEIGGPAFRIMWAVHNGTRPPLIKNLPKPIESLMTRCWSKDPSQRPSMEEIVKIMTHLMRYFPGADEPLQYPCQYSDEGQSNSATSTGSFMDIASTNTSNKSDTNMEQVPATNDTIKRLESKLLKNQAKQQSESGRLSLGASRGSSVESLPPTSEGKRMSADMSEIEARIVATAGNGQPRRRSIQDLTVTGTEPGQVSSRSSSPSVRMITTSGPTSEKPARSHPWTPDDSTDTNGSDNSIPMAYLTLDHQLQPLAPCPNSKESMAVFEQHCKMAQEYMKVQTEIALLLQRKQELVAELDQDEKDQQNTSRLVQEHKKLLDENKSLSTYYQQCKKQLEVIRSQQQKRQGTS
The assay is described as above.

The target in the next assay is T3, TRAF6 (332–530) (UniProt P70196).
T3 sequence: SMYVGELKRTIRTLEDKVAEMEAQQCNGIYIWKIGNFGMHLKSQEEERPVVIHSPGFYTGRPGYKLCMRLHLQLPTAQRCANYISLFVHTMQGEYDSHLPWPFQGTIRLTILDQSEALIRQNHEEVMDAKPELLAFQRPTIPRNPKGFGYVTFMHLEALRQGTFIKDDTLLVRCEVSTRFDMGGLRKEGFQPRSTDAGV
Description: co-IP; supplementary panels (Fig. S7b-d, S8a, S8c-d, S9a-b) whose legends were not shown; cells and tags not stated; with or without TIGAR overexpression.

Assay [3] concerns the target T1, HA-TRAF6 (tumor necrosis factor receptor-associated factor 6). The assay is described as above.
The target in assay [4] is T2, HA-TAK1 (transforming growth factor β-activated kinase). Described as above.
For assay [5], the target named is T4, endogenous TAK1 (mouse (endogenous in BMDMs)) (UniProt Q62073).
T4 sequence: T2 sequence
Description: co-IP; endogenous proteins in murine BMDMs (WT or Tigar KO), with or without LPS (100 ng/ml, 30 min); IP with anti-TAK1 or anti-TRAF6 antibody, western blot.

In assay [6] the target is T5, endogenous TRAF6 (mouse (endogenous in BMDMs)) (UniProt P70196).
T5 sequence: T1 sequence
The assay is described as above.

Assay [7] deals with T6, His-TRAF6 (tumor necrosis factor receptor-associated factor 6) (UniProt P70196).
T6 sequence: T1 sequence
Description: co-IP; HEK293 cells co-transfected with tagged plasmids; lysate incubated with the indicated antibody overnight at 4 °C, protein A/G plus agarose beads, western blot; in some panels a third protein co-expressed, or cells incubated with 5Z-7-OX (0.1, 0.3 or 1 mM, 12 h).

Residue numbers refer to the chain shown, from its start. No constants are given. Whether binding was seen depends on the method and setting. Binding seen in cells or lysates may run through a third protein. Some results given as binding are weak or reduced against the parent protein; the word gives no strength. For part of these data: Where a sequence is shown, tags or fusion partners need not be part of it.

B1: TIGAR (1–210) (domain or fragment, UniProt Q8BZA9 1-210)
chain: MPRFALTVIRHGETRLNKEKIIQGQGVDAPLSETGFRQAAAAGQFLSNVQFTHAFSSDLTRTKQTIHGILEKSRFCKDMAVKYDSRLRERMYGVAEGKPLSELRAMAKAAGEECPMFTPPGGETVEQVKMRGKDFFDFICQLILGKAGQRESVLPGAPGSGLESSLAEVFPVGKHGSLGANPKGGTLGLAASILVVSHGAYMRSLFGYFL
Consider B1, for which the binding entry in assay [1] and in assay [2] was “binds” in each case.

B2: TAK1 (1–300) (domain or fragment, UniProt Q62073 1-300)
chain: MSTASAASSSSSSSASEMIEAPSQVLNFEEIDYKEIEVEEVVGRGAFGVVCKAKWRAKDVAIKQIESESERKAFIVELRQLSRVNHPNIVKLYGACLNPVCLVMEYAEGGSLYNVLHGAEPLPYYTAAHAMSWCLQCSQGVAYLHSMQPKALIHRDLKPPNLLLVAGGTVLKICDFGTACDIQTHMTNNKGSAAWMAPEVFEGSNYSEKCDVFSWGIILWEVITRRKPFDEIGGPAFRIMWAVHNGTRPPLIKNLPKPIESLMTRCWSKDPSQRPSMEEIVKIMTHLMRYFPGADEPLQY
In the case of B2, in the assay with TRAF6 (332–530), the binding result is “binds”.

B3: TIGAR mutant (TMU) (protein, UniProt Q8BZA9 1-269)
chain: MPRFALTVIRAGETRLNKEKIIQGQGVDAPLSETGFRQAAAAGQFLSNVQFTHAFSSDLTRTKQTIHGILEKSRFCKDMAVKYDSRLRERMYGVAEGKPLSALRAMAKAAGEECPMFTPPGGETVEQVKMRGKDFFDFICQLILGKAGQRESVLPGAPGSGLESSLAEVFPVGKHGSLGANPKGGTLGLAASILVVSAGAYMRSLFGYFLSDLRCSLPGARDKLELSSITPNTGISVFIIDCEEARQPSIQCVCMNLQEHLNGVTEKQH
B3: the binding result in assay [3] and in assay [4] was “binds” in each case.

B4: endogenous TIGAR (protein, UniProt Q8BZA9 1-269)
chain: B3 chain with A11H, A102E, A198H
In the case of B4, the binding result in assay [5] was “binds”.

B5: His-TAK1 (transforming growth factor β-activated kinase) (protein, UniProt Q62073 1-579)
chain: T2 sequence
For the molecule B5, the binding entry in assay [1] and in assay [3] was “binds” in each case.

B6: endogenous TAK1 (enzyme, UniProt Q62073 1-579)
chain: T2 sequence
B6: the binding entry in assay [6] was “binds”.

B7: HA-TAK1 (transforming growth factor β-activated kinase) (protein, UniProt Q62073 1-579)
chain: T2 sequence
B7: in assay [7], the binding entry is given as “binds”.

B8: TIGAR (211–269) (domain or fragment, UniProt Q8BZA9 211-269)
chain: SDLRCSLPGARDKLELSSITPNTGISVFIIDCEEARQPSIQCVCMNLQEHLNGVTEKQH
With B8, the binding entry in assay [1] and in assay [2] was “no binding” in each case.
